Assay results as given in PubChem BioAssay AID686978 (National Center for Advancing Translational Sciences (NCATS), 2013).
Out of some 420,000 compounds screened, about 64,000 (15%) were called active. The inconclusive results got no clear call from the source; some entries with a clear call stand among them for comparison. The call rests on the fitted dose curve; in most records, active means well fitted inhibition curve with a large enough effect; inconclusive means small, poorly fitted or top-dose-only effect; inactive means flat fitted curve, though single readings scatter. No potency is given beside an inconclusive call; the fits are too rough.

Assay: qHTS for Inhibitors of human tyrosyl-DNA phosphodiesterase 1 (TDP1): qHTS in cells in absence of CPT; further: nearly all actives have a fitted effect of over 55% in size
Settings: DT40 Tdp1-/- hTDP1 cells, no CPT, ATP luminescence, 48 h; activity change, negative = growth inhibition: at 46.2 µM (top of the series) unless noted
Procedure, shortened: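 Chicken DT40 Tdp1-/- cells stably complemented with human TDP1 were seeded at 400 cells/well with DMSO in place of 20 nM camptothecin. After compound pinning, cells grew at least 48 hr at 37 °C; viability read by CellTiter-Glo luminescence.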
On the % scale 0 is the no-effect control and ±100 the full control effect; potency means the concentration at half of the fitted maximal effect; tags describe the fitted curve by direction and shape.

Row | Structure (SMILES) | Potency | activity change, negative = growth inhibition
1 | CCc1nc(SCC(=O)Nc2cc(C)ccc2OC)c2c(C)c(C)sc2n1 | active: 14.6 µM | 
2 | CCOC(=O)c1c(C)[nH]c(C)c1C(=O)CSc1nnc(-c2ccco2)n1Cc1ccccc1 | inconclusive [inhibitor, partial curve] | 
3 | CCc1ccc(Nc2n[n+](-c3ccccc3)c(-c3ccc(OC)c(Br)c3)s2)cc1 | inconclusive [inhibitor, partial curve, poor fit] | 
4 | O=C(O)CSC(NC(=O)c1cccnc1)(C(F)(F)F)C(F)(F)F |  | inactive: -1.73%
5 | Cc1ccccc1S(=O)(=O)Cc1ccc(C(=O)NC2CCCCC2C)o1 (centres undefined) | inconclusive [inhibitor, single point] | 
6 | CCC(C(=O)OCC(=O)Nc1c(Cl)cccc1Cl)c1ccccc1 (centres undefined) |  | inconclusive: -35.9% [inhibitor]
7 | CCOc1ccccc1/C=C/C(=O)NCC(=O)N1CCC(N(C)C2CCCCC2C)CC1 (centres undefined) | inconclusive [inhibitor, single point] | 
8 | COc1ccc(N2C(=O)CSC23C(=O)N(CC(=O)NC2CCCC2)c2ccccc23)cc1 (centres undefined) |  | inactive: 21.8%
9 | COC(=O)c1sc(S(=O)(=O)Nc2ccc(C)c(C)c2)c(C(=O)OC)c1C | inconclusive [inhibitor, partial curve] | 
10 | COc1cc(C(=O)N2CCN(C(=O)c3ccco3)CC2)c([N+](=O)[O-])cc1OC |  | inactive: -0.0906%
11 | Cc1ccc(/C=N/n2c(-c3cccnc3)n[nH]c2=S)s1 |  | inactive: -20.2%
12 | CCOC(=O)C1=C(C)N(C)C(C)=C(C(=O)OCC)C1c1ccc(Cl)cc1 | inconclusive [inhibitor, single point] | 
13 | Cc1cc(C)nc(N/C(=N\S(=O)(=O)Cc2ccccc2)Nc2cccc(Cl)c2C)n1 | inconclusive [inhibitor, single point] | 
14 | C[C@H](CO)N1C[C@H](C)[C@@H](CN(C)S(=O)(=O)c2cn(C)cn2)Oc2c(NS(=O)(=O)c3cn(C)cn3)cccc2C1=O |  | inactive: -7.91%
15 | COc1ccc(CNCCC(c2ccc(OC(C)C)cc2)C(C)C)cc1OC (centres undefined) | active: 16.4 µM | 
16 | Cc1ccc(-n2nc(C)c3c(-c4cccs4)c(C#N)c(N)nc32)cc1 | active: 23.1 µM | 
17 | Cc1cccc(NC(=O)C(=O)NCC2CCCN2S(=O)(=O)c2cccs2)c1 (centres undefined) | active: 8.2 µM | 
18 | CC(=O)N1CCc2cc(S(=O)(=O)NC(CC(C)C)C(=O)NCCc3cccc(C)c3)ccc21 (centres undefined) |  | inactive: -6.71%
19 | Cc1ccc(S(=O)(=O)c2c(N)n(CC3CCOC3)c3nc4ccccc4nc23)cc1 (centres undefined) | inconclusive [inhibitor, single point] | 
